The results in this text go back to the supplement of paper PMC8813932.

Test systems include OVCAR4; Ov4Carbo; Ov4Cis.
What all share (assay): log2 surviving fraction relative to plate median (drug vs vehicle, or drug+dl922-947 vs dl922-947 alone); ovarian cancer lines: OVCAR4 is platinum-sensitive while Ov4Cis resists cisplatin and Ov4Carbo carboplatin; higher = more cell survival
What all share (settings): compound concentration: 10 uM, 192 h

Where [1] appears, read: dl922-947 oncolytic adenovirus co-treatment: MOI 10.
Setting [2] is: dl922-947 oncolytic adenovirus co-treatment: none.

Where a name gives a salt, the structure may show the parent alone. ± gives the standard deviation of the averaged measurements. Some of the results follow. Repeats are few or missing, and single values can be far off.

For the molecule `CCCc1nc(C(C)(C)O)c(C(=O)OCc2oc(=O)oc2C)n1Cc1ccc(-c2ccccc2-c2nnn[nH]2)cc1` [Olmesartan medoxomil (Benicar)], the log2 surviving fraction in the assay on OVCAR4 (setting [1]) turned out to be 0.538 ± 0.0054; with OVCAR4 (setting [2]), 0.0881 ± 0.32; in the assay with Ov4Carbo (setting [1]), 1.86; with Ov4Carbo (setting [2]), 0.692; in the assay with Ov4Cis (setting [1]), 0.00538; in the assay on Ov4Cis (setting [2]), 0.113.
For `CNC[C@H](O)c1cccc(O)c1` [Phenylephrine HCl], the log2 surviving fraction with OVCAR4 (setting [1]) is 0.33 ± 0.043; in the assay on OVCAR4 (setting [2]), -0.221 ± 1; with Ov4Carbo (setting [1]), 0.219; in the assay with Ov4Carbo (setting [2]), 0.259; in the assay on Ov4Cis (setting [1]) it was -1.36; in the assay on Ov4Cis (setting [2]), 0.473.
For `CCCCC[C@H](O)/C=C/[C@H]1[C@H](O)CC(=O)[C@@H]1CCCCCCC(=O)O` [Alprostadil (Caverject)], the log2 surviving fraction in the assay with OVCAR4 (setting [1]) is -0.209 ± 1.5; in the assay with OVCAR4 (setting [2]), -0.84 ± 0.16; in the assay on Ov4Carbo (setting [1]), -0.322; in the assay with Ov4Carbo (setting [2]), -0.903; in the assay with Ov4Cis (setting [1]) it was -0.162; in the assay with Ov4Cis (setting [2]), -0.293.
Take `O=[N+]([O-])c1ccc([As](=O)(O)O)cc1` [Nitarsone]: the log2 surviving fraction is -1.23 ± 0.96 in the assay on OVCAR4 (setting [1]); -0.556 ± 0.12 in the assay on OVCAR4 (setting [2]); -0.301 in the assay on Ov4Carbo (setting [1]); -0.185 in the assay with Ov4Carbo (setting [2]); -0.81 in the assay on Ov4Cis (setting [1]); -0.243 with Ov4Cis (setting [2]).
Consider `CC(=O)[C@H]1CC[C@H]2[C@@H]3CC=C4C[C@@H](O)CC[C@]4(C)[C@H]3CC[C@]12C` [Pregnenolone], for which the log2 surviving fraction in the assay on OVCAR4 (setting [1]) is 0.904 ± 0.32; in the assay with OVCAR4 (setting [2]) it was 0.693 ± 0.55; in the assay with Ov4Carbo (setting [1]), -0.0653; in the assay with Ov4Carbo (setting [2]), 0.356; in the assay with Ov4Cis (setting [1]), 1.27; in the assay with Ov4Cis (setting [2]), 1.14.
In the case of `Nc1ccc(C(=O)NCC(=O)O)cc1` [Sodium 4-aminohippurate Hydrate], the log2 surviving fraction with OVCAR4 (setting [1]) was 0.0362 ± 0.43; in the assay with OVCAR4 (setting [2]) it was -0.581 ± 1.4; with Ov4Carbo (setting [1]), 0.392; in the assay with Ov4Carbo (setting [2]) it was -0.701; in the assay with Ov4Cis (setting [1]) it was -1.54; in the assay with Ov4Cis (setting [2]), -0.262.
In the case of `C[C@@H]1CCC[C@H](C)N1NC(=O)c1ccc(Cl)c(S(N)(=O)=O)c1` [Clopamide], the log2 surviving fraction is -0.197 ± 0.18 in the assay with OVCAR4 (setting [1]); -0.0465 ± 0.26 with OVCAR4 (setting [2]); 0.321 in the assay with Ov4Carbo (setting [1]); 1.17 with Ov4Carbo (setting [2]); 0.0851 with Ov4Cis (setting [1]); -0.239 in the assay with Ov4Cis (setting [2]).
Regarding `COC(=O)[C@@H]1CC2=CC(=O)CC[C@]2(C)[C@@]23O[C@@H]2C[C@@]2(C)[C@@H](CC[C@@]24CCC(=O)O4)[C@H]13` [Eplerenone], the log2 surviving fraction in the assay with OVCAR4 (setting [1]) is 0.553 ± 0.23; in the assay with OVCAR4 (setting [2]), 0.26 ± 0.25; in the assay with Ov4Carbo (setting [1]), -0.00811; in the assay on Ov4Carbo (setting [2]) it was 1.14; in the assay with Ov4Cis (setting [1]), 0.354; in the assay on Ov4Cis (setting [2]), 0.804.
For `CCn1cc(C(=O)O)c(=O)c2cc(F)c(N3CCNCC3)nc21` [Enoxacin (Penetrex)], the log2 surviving fraction with OVCAR4 (setting [1]) is -0.119 ± 0.7; with OVCAR4 (setting [2]), -0.169 ± 0.2; in the assay on Ov4Carbo (setting [1]), -0.533; in the assay on Ov4Carbo (setting [2]), -0.114; in the assay on Ov4Cis (setting [1]) it was -0.0401; with Ov4Cis (setting [2]), -0.604.
With `Cc1cc2nc3c(=O)[nH]c(=O)nc-3n(C[C@H](O)[C@H](O)[C@H](O)CO)c2cc1C` [Riboflavin (Vitamin B2)], the log2 surviving fraction was -0.081 ± 0.82 with OVCAR4 (setting [1]); 0.0761 ± 0.22 in the assay with OVCAR4 (setting [2]); 1.13 in the assay on Ov4Carbo (setting [1]); 0.122 in the assay with Ov4Carbo (setting [2]); -0.222 in the assay with Ov4Cis (setting [1]); -0.438 in the assay on Ov4Cis (setting [2]).
Take `C[C@@H]1C[C@H]2[C@@H]3C[C@H](F)C4=CC(=O)C=C[C@]4(C)[C@@]3(F)[C@@H](O)C[C@]2(C)[C@@]1(O)C(=O)CO` [Flumethasone]: the log2 surviving fraction with OVCAR4 (setting [1]) is 1 ± 0.62; in the assay on OVCAR4 (setting [2]), -0.22 ± 0.08; in the assay on Ov4Carbo (setting [1]), 1.82; in the assay on Ov4Carbo (setting [2]) it was -0.786; in the assay on Ov4Cis (setting [1]), 1.68; in the assay on Ov4Cis (setting [2]) it was -1.1.
As to `COc1ccc([C@@H]2Sc3ccccc3N(CCN(C)C)C(=O)[C@@H]2OC(C)=O)cc1` [Diltiazem HCl (Tiazac)], the log2 surviving fraction in the assay with OVCAR4 (setting [1]) is -1.05 ± 0.66; with OVCAR4 (setting [2]) it was 0.0889 ± 0.16; in the assay with Ov4Carbo (setting [1]), -0.498; with Ov4Carbo (setting [2]) it was -0.0987; with Ov4Cis (setting [1]), -0.933; in the assay with Ov4Cis (setting [2]), -0.372.
On to `CCCN(CCC)CCc1cccc2c1CC(=O)N2` [Ropinirole HCl], for which the log2 surviving fraction in the assay on OVCAR4 (setting [1]) is -0.185 ± 0.026; with OVCAR4 (setting [2]) it was 0.416 ± 0.49; in the assay with Ov4Carbo (setting [1]), -1; with Ov4Carbo (setting [2]) it was -0.0191; in the assay on Ov4Cis (setting [1]), -0.252; in the assay with Ov4Cis (setting [2]), 0.0905.
Take `C=C[C@H]1CN2CC[C@H]1C[C@H]2[C@H](O)c1ccnc2ccc(OC)cc12` [Quinine hydrochloride dihydrate]: the log2 surviving fraction in the assay with OVCAR4 (setting [1]) is -0.113 ± 0.23; in the assay on OVCAR4 (setting [2]) it was -0.485 ± 0.7; in the assay on Ov4Carbo (setting [1]), 0.812; with Ov4Carbo (setting [2]) it was -1.94; in the assay with Ov4Cis (setting [1]), -0.441; in the assay with Ov4Cis (setting [2]), -0.664.
`CCN1CCN(c2cc3c(cc2F)c(=O)c(C(=O)O)cn3C2CC2)CC1` [Enrofloxacin]: the log2 surviving fraction was 0.174 ± 0.15 in the assay on OVCAR4 (setting [1]); 1.35 ± 1.5 with OVCAR4 (setting [2]); -1.87 in the assay with Ov4Carbo (setting [1]); 1.22 in the assay on Ov4Carbo (setting [2]); 0.389 with Ov4Cis (setting [1]); -0.784 in the assay on Ov4Cis (setting [2]).
